Data on 167 variants can be found in the RNAGym collection of RNA variant scans (doi:10.1101/gad.245936.114).

Variants at the floor of the assay are shown more often than the library holds them.

The chains are these.
B1: tRNA (parent)
chain: CUCUCGGUAGCCAAGUUGGUUUAAGGCGCAAGACUUUAAUUUAUCACUACGAAAUCUUGAGAUCGGGCGUUCGACUCGCCCCCGGGAGAUUUUUUCCUCGAGCAA

The variants in this data set derive from B1. In words: nonsense suppression (GFP-seq) (ratio to wild type); higher = more function; SUP4oc tRNA, yeast GFP reporter sort-seq. A digest of the protocol:
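Each variant's nonsense suppression (GFPSEQ) is a cell-share-weighted bin median GFP/RFP relative to the unmutated parent tRNA. Yeast with genome-integrated tRNA variants from a ~3% random-mutation library, a galactose-driven GFP ochre reporter and RFP were grown in raffinose/galactose medium with 80 mg/L adenine, then sorted into GFP/RFP bins for Illumina sequencing. Variants needed ≥100 reads and ≥30 cells.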
Take G7C G69U C80G: the nonsense suppression was at most 0.026.
The figure for G6U C83G is 0.923; for G26U G66C C83G it is at most 0.026.
With U22C A30C G32U C82G, the nonsense suppression was at most 0.026.
With C1G G10U G66U G73U, the nonsense suppression is at most 0.026.
Consider G7A G25A, for which the nonsense suppression is at most 0.026.
Consider G10U A13C G18A G26C G84C, for which the nonsense suppression is at most 0.026.
With U35G G59U C64G, the nonsense suppression is at most 0.026.
With G59A U71G C81A, the nonsense suppression was at most 0.026.
Consider U16G C27A G28U A30U, for which the nonsense suppression was at most 0.026.
Regarding G15A A89U, the nonsense suppression is at most 0.026.
As to U35G A54C C77G, the nonsense suppression was at most 0.026.
Take C3A U57G G69A: the nonsense suppression was at most 0.026.
Then G10U C56U, with at most 0.026; and G7U C82A, with 1.02.
In the case of C72G U76A, the nonsense suppression was at most 0.026.
As for G6U G84U, the nonsense suppression was at most 0.026.
For U17G U71G, the nonsense suppression is at most 0.026.
Turning to A24C G85A G86A, the nonsense suppression is at most 0.026.
As to U8G A31U G85A, the nonsense suppression was at most 0.026.
In the case of A33C C64A, the nonsense suppression was at most 0.026.
C3U C27U U35A U71G: the nonsense suppression is at most 0.026.
As to A9U G84A, the nonsense suppression was 0.138.
The figure for A24C G25U G28U is at most 0.026; for C3U G6U U22G C81G it is at most 0.026; for G32A it is at most 0.026.
Turning to U4C A33G C34U G67U C80U C82A, the nonsense suppression was at most 0.026.
On to G6U G10C U58G, for which the nonsense suppression was at most 0.026.
A54G C56A G61U: the nonsense suppression is at most 0.026.
Then U2C C3G C27U A54G G59A, with at most 0.026; and U8G A14U U57A G67C, with at most 0.026.
Take U57A G61A A62G: the nonsense suppression was at most 0.026.
Consider U2G G10C G26A G69U, for which the nonsense suppression was at most 0.026.
On to C12G U21A G59U, for which the nonsense suppression was at most 0.026.
The figure for U8G G18A C34A G67A is at most 0.026; for G15C A24G it is at most 0.026; for C11G G32U G73U it is at most 0.026.
For the variant G28A C75G, the nonsense suppression stood at 1.02.
As to G15U G19A C81A, the nonsense suppression was at most 0.026.
Consider C5A C12G, for which the nonsense suppression was at most 0.026.
As to C11G A23U G73U C81A G88A, the nonsense suppression was at most 0.026.
The figure for A14G A62C C83G is at most 0.026; for C11U U71A G73C it is at most 0.026; for G61A G85U it is 0.429.
Consider G10U A14C C34U, for which the nonsense suppression was at most 0.026.
For the variant A13C U58C G73A C79U, the nonsense suppression was at most 0.026.
Take A60U U63C C72A: the nonsense suppression is at most 0.026.
With G25U C75U, the nonsense suppression was at most 0.026.
The figure for U4C G25U C56U U63G is at most 0.026; for A33C U55A C77A it is at most 0.026; for G32A G69A it is at most 0.026.
For the variant A60C C82U A89G, the nonsense suppression was at most 0.026.
Regarding U58G G85U G86U, the nonsense suppression was at most 0.026.
For the variant C1U U8C A33U U55C G69A, the nonsense suppression is at most 0.026.
The figure for C27G A31C is at most 0.026; for C29A A89C it is at most 0.026; for C27U G65A G69U it is at most 0.026.
Consider U4C G7U U8C G69C, for which the nonsense suppression is at most 0.026.
For the variant A24C U57A, the nonsense suppression is 0.0454.
As to U2A U63C G78A, the nonsense suppression is at most 0.026.
For C12G G69A G84U, the nonsense suppression was at most 0.026.
U8C A54C: the nonsense suppression is 0.0833.
As for G28A C29A A89C, the nonsense suppression was at most 0.026.
Turning to A14U U57G U63C, the nonsense suppression is at most 0.026.
Then G25A G88C, with at most 0.026; and C3A U17C A62G, with at most 0.026.
Consider U55A A74C, for which the nonsense suppression is at most 0.026.
Turning to C3G C27G, the nonsense suppression is at most 0.026.
The figure for C11U U16C A89C is at most 0.026; for U21A G26C G69C C80G it is at most 0.026; for U17G C82A it is at most 0.026.
The figure for G15U A23G U55G is at most 0.026; for G6U U76A it is at most 0.026.
As for C5A G18C G65U U71A, the nonsense suppression is at most 0.026.
Then C11A U71G A74C A87G, with at most 0.026.
For the variant C3A G32C U70C, the nonsense suppression is at most 0.026.
Turning to U2C C68A C72G, the nonsense suppression was at most 0.026.
Take G6C C80G: the nonsense suppression is at most 0.026.
Consider G19A C34U, for which the nonsense suppression is at most 0.026.
Then G19C A31C U55C G61C A87C, with at most 0.026.
Then A13G G15C C27A C82A, with at most 0.026; and G19U G65U, with at most 0.026; and C12G U35G, with at most 0.026.
Consider G6A G26A G59U C72U, for which the nonsense suppression is at most 0.026.
For the variant G25A U57G, the nonsense suppression was at most 0.026.
In the case of U17C U55C, the nonsense suppression was 0.444.
Then C3U G7C A23G C83U, with at most 0.026; and U17A A23C G25C U58G, with at most 0.026.
For G66C C75G, the nonsense suppression is at most 0.026.
On to U21G G32A U63C G65U, for which the nonsense suppression was at most 0.026.
Then G19U G28A, with 0.0287.
With G15C U17A, the nonsense suppression was at most 0.026.
For G7U G10U G67C, the nonsense suppression is at most 0.026.
For the variant C27G G32C, the nonsense suppression was at most 0.026.
On to C1G A33C, for which the nonsense suppression is at most 0.026.
Consider C72A C75G, for which the nonsense suppression is at most 0.026.
For C11G G15A G86C, the nonsense suppression is at most 0.026.
Then U2C A9U, with at most 0.026.
Consider G66U, for which the nonsense suppression was at most 0.026.
For A54G A89C, the nonsense suppression was at most 0.026.
Then U17A G28A G85A, with 1.02; and A14C G19C A30U U70G C82A, with at most 0.026.
As for A9G G61C G65U, the nonsense suppression was at most 0.026.
For U4G G7U C34U, the nonsense suppression is at most 0.026.
Regarding G6U C34G A89G, the nonsense suppression was at most 0.026.
For U2G G15A U21A G25A G69C U70G, the nonsense suppression was at most 0.026.
With U2A G32U, the nonsense suppression was at most 0.026.
As to A31U G66A U76C, the nonsense suppression is at most 0.026.
The figure for U4G A30C U70A C82U is at most 0.026.
Consider U22G C27G, for which the nonsense suppression was at most 0.026.
For C3A U21C C68G, the nonsense suppression is at most 0.026.
For U8A A24C C79G, the nonsense suppression was at most 0.026.
On to C11G G65C C82U, for which the nonsense suppression is at most 0.026.
As for A23C U57C, the nonsense suppression is at most 0.026.
Consider U57C U63C C83A, for which the nonsense suppression was at most 0.026.
Consider A24G G66C A74U, for which the nonsense suppression is at most 0.026.
Take U8C U17C G66C: the nonsense suppression is at most 0.026.
On to U8A C83G, for which the nonsense suppression is at most 0.026.
With U58A C81G, the nonsense suppression is at most 0.026.
C3U G10U C56U U71G A74U: the nonsense suppression is at most 0.026.
The figure for U17A A24G is 0.0262; for A24C U58G G65C it is at most 0.026.
The figure for C12A C83G G85A is at most 0.026; for A33C C34U it is at most 0.026; for C3A A13U C29U U57C A60G it is at most 0.026.
C5U A14G G19A: the nonsense suppression is at most 0.026.
With C29G A60G C72G, the nonsense suppression was at most 0.026.
As to G28U A62C A89C, the nonsense suppression is at most 0.026.
Then C11A G25U, with at most 0.026; and U4C G61C, with 0.86.
On to U71C A87C, for which the nonsense suppression is at most 0.026.
As for G6U A31U U76C, the nonsense suppression is at most 0.026.
For the variant C27A G84A G86C, the nonsense suppression was at most 0.026.
As to U21A G25U C27G U55A U71C C72A G78A, the nonsense suppression is at most 0.026.
As for C29A A31G G67A U76C, the nonsense suppression was at most 0.026.
As for G19U A23C, the nonsense suppression is at most 0.026.
C3U C12G U16C U21G C68U: the nonsense suppression is at most 0.026.
Then U2C A60U U63A, with at most 0.026; and U63A G69U, with at most 0.026; and C5G C12G U55G C56U C77G G84U, with at most 0.026.
As for G10A G65C G66C G78A, the nonsense suppression is at most 0.026.
On to C11A G19A C72G, for which the nonsense suppression is at most 0.026.
As for A9G A62C, the nonsense suppression was at most 0.026.
For C34G U71G, the nonsense suppression was at most 0.026.
For the variant U35G U71A U76G G86U, the nonsense suppression was at most 0.026.
Take A24G A62U G65A: the nonsense suppression is at most 0.026.
On to G65C G73C C75A, for which the nonsense suppression was at most 0.026.
Regarding C34U U63C C75A C81G G84C, the nonsense suppression was at most 0.026.
Take C56G G84A: the nonsense suppression is at most 0.026.
Regarding A24G A33G G66U, the nonsense suppression is at most 0.026.
Turning to G32A G66U C83A, the nonsense suppression is at most 0.026.
Consider G28C G65C A87C, for which the nonsense suppression is at most 0.026.
Take A14G G18U: the nonsense suppression is at most 0.026.
The figure for U20C C29A is at most 0.026.
Consider U55G C68A, for which the nonsense suppression is at most 0.026.
The figure for U8G U35A U57G is at most 0.026; for A24C G28U it is at most 0.026.
Turning to C34G A60U A89C, the nonsense suppression was at most 0.026.
Take G7C C80G: the nonsense suppression is at most 0.026.
Then C27G G69U U70A G84U, with at most 0.026; and G32U A54G U63G U70C U71C A74U, with at most 0.026; and U16C C81U, with 1.16.
Turning to A30C A62G, the nonsense suppression was at most 0.026.
In the case of C12A A13U A30C U63G, the nonsense suppression is at most 0.026.
Regarding A9G U17C G25U C83A, the nonsense suppression was at most 0.026.
Regarding U17G A24C C34G, the nonsense suppression was at most 0.026.
As to U2G A14G C29G, the nonsense suppression was at most 0.026.
